# Measured values: publication PMC5717399, “Twa1/Gid8 is a β-catenin nuclear retention factor in Wnt signaling and colorectal tumorigenesis” (Cell Research, 2017)
# B1: GST-Twa1 (natural protein)
# chain: not shown
# notes: Twa1 (Gid8), human, wild type; the only Twa1 cDNA described is full-length human Twa1; The bacterial expression vector of the GST fusion is not described; also called Gid8; wild-type GST-Twa1; source: Escherichia coli BL21, purified
# Target: T1, His-β-catenin (human, UniProt P35222 1-781)
# T1 construct: β-catenin, human; the only β-catenin cDNA cloned by the authors is full-length human β-catenin; The bacterial expression vector of the His fusion is not described; source: Escherichia coli BL21, purified
# T1 sequence (looked up): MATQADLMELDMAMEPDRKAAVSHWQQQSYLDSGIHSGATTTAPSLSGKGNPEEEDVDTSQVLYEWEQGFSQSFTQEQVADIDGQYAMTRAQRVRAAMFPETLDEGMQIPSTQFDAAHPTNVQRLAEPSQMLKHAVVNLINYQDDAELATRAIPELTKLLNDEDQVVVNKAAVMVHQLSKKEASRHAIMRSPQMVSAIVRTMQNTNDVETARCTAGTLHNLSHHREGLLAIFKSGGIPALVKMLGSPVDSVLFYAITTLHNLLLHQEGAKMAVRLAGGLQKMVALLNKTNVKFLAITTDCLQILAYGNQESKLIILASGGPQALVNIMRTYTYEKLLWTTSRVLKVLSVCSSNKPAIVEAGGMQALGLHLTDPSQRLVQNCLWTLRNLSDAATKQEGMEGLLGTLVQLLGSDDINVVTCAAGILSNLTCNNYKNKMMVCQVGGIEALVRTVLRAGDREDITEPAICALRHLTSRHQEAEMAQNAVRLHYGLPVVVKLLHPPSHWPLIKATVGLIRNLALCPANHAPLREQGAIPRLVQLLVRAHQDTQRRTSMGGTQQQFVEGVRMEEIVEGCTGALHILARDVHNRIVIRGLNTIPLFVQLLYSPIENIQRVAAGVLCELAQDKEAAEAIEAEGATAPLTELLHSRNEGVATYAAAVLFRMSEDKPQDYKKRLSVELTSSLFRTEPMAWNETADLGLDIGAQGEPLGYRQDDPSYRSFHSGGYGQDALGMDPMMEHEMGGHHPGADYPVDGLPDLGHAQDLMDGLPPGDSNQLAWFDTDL
# Experiment: pull-down; GST pull-down: purified proteins incubated in 20 mM Tris pH 8.0, 150 mM NaCl, 0.5% NP-40, 5 mM EGTA, 1.5 mM EDTA at 4 °C for 4 h, then glutathione-agarose beads for 2 h; western blotting
# Settings: both partners purified
binder,measurement,value
B1,binding result,binds
